The whole screen tested about 45,000 compounds, of which about 65 (0.1%) were called active. Calls follow the shape of the dose curve; as a rule, active = well fitted activation curve with a large enough effect; inconclusive = small, poorly fitted or top-dose-only effect; inactive = no such curve, though single readings can be large or run the other way. Some of the results follow.

Chain of UniProt P54803 (P54803 whole entry, looked up): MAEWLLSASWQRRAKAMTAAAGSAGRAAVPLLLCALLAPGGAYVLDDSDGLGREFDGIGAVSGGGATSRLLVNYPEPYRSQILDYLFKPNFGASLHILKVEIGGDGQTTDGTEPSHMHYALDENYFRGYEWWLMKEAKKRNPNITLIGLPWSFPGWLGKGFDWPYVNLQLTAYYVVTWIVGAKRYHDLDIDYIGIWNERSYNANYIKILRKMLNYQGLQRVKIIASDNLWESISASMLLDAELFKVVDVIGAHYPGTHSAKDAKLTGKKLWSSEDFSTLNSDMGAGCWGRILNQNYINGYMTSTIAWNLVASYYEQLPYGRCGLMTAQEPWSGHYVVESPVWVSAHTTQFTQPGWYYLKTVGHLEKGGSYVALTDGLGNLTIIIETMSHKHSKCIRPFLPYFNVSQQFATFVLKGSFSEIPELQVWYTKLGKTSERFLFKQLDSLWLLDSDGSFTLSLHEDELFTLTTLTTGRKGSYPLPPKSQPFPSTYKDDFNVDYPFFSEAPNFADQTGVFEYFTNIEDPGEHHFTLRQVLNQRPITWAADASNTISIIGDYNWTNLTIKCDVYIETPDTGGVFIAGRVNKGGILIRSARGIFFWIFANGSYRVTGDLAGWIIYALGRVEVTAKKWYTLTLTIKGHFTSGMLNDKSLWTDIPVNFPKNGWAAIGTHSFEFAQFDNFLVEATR

The target of the experiment is Galactocerebrosidase (Homo sapiens) (UniProt P54803). The experiment in a line: A Novel Cell-Based Assay to Identify Small Molecules for B -Galactocerebrosidase. Also: 0% is about no effect; nearly all actives have a fitted effect of over 65% in size. The settings on record: 145M-Twi-hGALC-G270D cells (Twitcher mouse brain line with human GALC G270D), HMU-beta-Gal fluorescence, 48 h; series mostly up to 57.5 µM; activation: at the top concentration. A digest of the protocol:
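Fluorogenic HMU-b-Gal hydrolysis (0.1 mM final, pH 5.2 citrate-phosphate with 1 mg/mL sodium taurocholate; carbonate stop buffer) measures mutant GALC activity after compound treatment of live 145M-Twi Twitcher brain cells stably carrying human GALC-G270D, with wild-type GALC line alongside; activation sought.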
As for `CCOC(=O)CSc1nc(-c2ccc(OCC)cc2)cc(C(F)(F)F)c1C#N`, the “activation” value is inactive: -1.95%.
For `CC(=O)Nc1ccc(/C=C/c2noc(-c3ccccc3O)n2)cc1`, the “activation” value is inactive: 18.5%.
Next, `Cc1ccc2oc(=O)c3cc(C(=O)NCCCOC(C)C)sc3c2c1`: inactive: 13.8%; `O=C(Nc1sc2c(c1C(=O)NCc1ccco1)CCCC2)c1cc(=O)c2cc(Cl)ccc2o1`: inactive: -15.7%; `CCOc1cc(C(=O)Nc2cc3c(cc2N2CCCC2)n(C)c(=O)c(=O)n3C)cc(OCC)c1OCC`: inactive: -10.3%.
Turning to `Cc1cc(C)c2nc(C)cc(Nc3cccc(C(=O)O)c3)c2c1`, the “activation” value is inactive: -1.93%.
To `Cc1nnc(N2CCN(C(=O)NCCC(C)C)CC2)c2nn(-c3ccc(Cl)cc3)c(C)c12` belongs inactive: -15.7%.
Next, `Cc1cccc(C(=O)Nc2cc3c(cc2C)n(C)c(=O)n3C)c1`: inactive: -13.4%; `CCC(=O)N1CCc2cc(Br)cc(S(=O)(=O)NCCc3cccc(C)c3)c21`: inactive: -4.68%; `CC(=O)N1CCc2cc(S(=O)(=O)NC(Cc3ccccc3)C(=O)NCc3ccccc3)ccc21` (stereo unspecified): inactive: -12.4%.
Next, `Cc1ccc(Cn2c(=O)n(Cc3ccccc3)c(=O)c3oc4ccccc4c32)cc1`: inactive: -15.6%; `CC(=O)Nc1ccc(NC(=O)c2ccc3c(c2)N(Cc2cccc(Cl)c2)C(=O)c2ccccc2S3=O)cc1` (stereo unspecified): inactive: -10.7%; `COCc1nc2ccccc2n1Cc1ccc(C(C)(C)C)cc1`: inactive: 19.9%.
`O=C(CCCCn1c(=O)c2ccccc2n(Cc2cccc(F)c2)c1=O)NCCc1ccccc1`: the “activation” value is inactive: -10.7%.
To `COc1ccccc1NC(=O)Cn1c(C)cc(C)c(C#N)c1=O` belongs inactive: -5.89%.
For the compound `Cc1ccc(C)c(NC(=O)CN2C(=O)CCc3cc(S(=O)(=O)N4CCCCC4)ccc32)c1`, the “activation” value was inactive: -3.88%.
With `NS(=O)(=O)c1cc2c(cc1Cl)CN(C1CCCCC1)C2=O`, the “activation” value was inactive: -10.4%.
To `Cc1ccc2c(c1)-c1nc(-c3ccc4c(c3)NC(=O)CO4)cc(-c3ccccc3)c1CO2` belongs inactive: -9.32%; to `CC(=O)N1CCC(N(Cc2ccc(C)o2)C(=O)Nc2cccc(C(F)(F)F)c2)CC1`, inactive: -10.5%; to `CC(=O)N1CCc2c(sc3c2c(=O)n(-c2ccccc2)c(=O)n3CC(=O)c2ccccc2)C1`, inactive: -17.7%.
To `COc1ccc(NC(=O)Nc2cc(-c3cn4cccnc4n3)ccc2C)cc1` belongs inactive: -13.6%; to `O=C(NC1CCN(Cc2ccccc2)CC1)c1ccc(Cn2c(=O)c3ccccc3n(Cc3ccc(Cl)cc3)c2=O)cc1`, inactive: -2.33%.
To `Cc1ccc(-c2cnc(C3CC3)o2)cc1S(=O)(=O)Nc1cccc(C)c1C` belongs inactive: -13.9%.
Take `CC(C)(C)OC(=O)N1CCC(c2c(C(=O)N3CCN(c4ccccn4)CC3)cnn2-c2ccc(F)cc2F)CC1`: the “activation” value was inactive: -8.29%.
Next, `COc1ccc2[nH]c3c(c2c1)CCN(C(=O)CCC1CCCC1)C3c1ccc(F)cc1` (stereo unspecified): inactive: -29.6%.
To `Cc1cccc(Cn2c(-c3ccccc3)nc3ccccc32)c1` belongs inactive: -12.5%.
Next, `O=C(CSc1nccn1-c1ccc(F)cc1)Nc1nc2ccccc2s1`: inactive: -13.9%; `O=C(CC1N=C2c3ccccc3N=C(SCc3ccc(F)cc3)N2C1=O)NCCc1ccccc1` (stereo unspecified): inactive: 0.41%.
Take `COc1ccc(NC(=O)c2oc3ccccc3c2NC(=O)c2cc(=O)c3cc(Cl)ccc3o2)cc1`: the “activation” value is inactive: 5.37%.
For the compound `COc1ccc(Cl)cc1NCc1nnc2n1CCCCC2`, the “activation” value was inactive: -22.1%.
To `COc1ccc(CC(C)NS(=O)(=O)c2ccc3c(c2)CCN3S(C)(=O)=O)cc1OC` (stereo unspecified) belongs inactive: -3.92%; to `COC(=O)c1c(NC(=O)c2ccc(OC)cc2OC)sc2c1CCCCC2`, inactive: -13.2%.
Next, `Cc1ccc(NC(=O)C2CCCN(c3ncnc4c3nc3n4CCCCC3)C2)c(Br)c1` (stereo unspecified): inactive: -23.3%.
To `CCn1c(=O)c2cc(C(=O)NCc3cc(OC)ccc3OC)sc2c2ccccc21` belongs inactive: 1.14%; to `CCN1CCN(c2csc3ccc(Br)cc3c2=O)CC1`, inactive: -15.3%.
On to `COc1ccc(NC(=O)C2CCCN(S(=O)(=O)c3c(C)[nH]c(=O)[nH]c3=O)C2)cc1OC` (stereo unspecified), for which the “activation” value was inactive: 11.3%.
Next, `CC(C)(C)c1ccc(C(=O)NCC(=O)OCc2cc(=O)n3nc(C4CC4)sc3n2)cc1`: inactive: -5.24%; `Cc1cc(C)cc(-n2c(SCC(=O)Nc3ccccc3)nc3c(oc4ccccc43)c2=O)c1`: inactive: -10.4%; `CCOc1ccc2nc(NC(=O)c3nc(SCc4ccccc4F)ncc3Cl)sc2c1`: inactive: -12.2%.
To `CCCCn1c(=O)n(CC2CCC(C(=O)NCCCOC)CC2)c(=O)c2sccc21` (stereo unspecified) belongs inactive: -17.5%; to `COc1cc(OC)cc(-c2nc3nc(C)c(CCC(=O)Nc4cc(C)cc(C)c4)c(C)n3n2)c1`, inactive: 5.42%.
To `CC(=O)c1ccc(NC(=O)CSC2=Nc3ccccc3N=C(c3ccc(F)cc3)C2)cc1` belongs inactive: 3.13%.
Take `CC(C)Cn1cc(NC(=O)N2CCN(c3ccc(F)cc3)CC2)c2ccccc2c1=O`: the “activation” value was inactive: -21.2%.
To `O=C(NCc1ccc(Cl)cc1)C1CCN(S(=O)(=O)c2cccc3nonc23)CC1` belongs inactive: -11.7%.
Next, `CCC(Cc1ccccc1)NC(=O)Cn1nc(C)n2c(cc3occc32)c1=O` (stereo unspecified): inactive: -10.7%; `Cc1ccc(-n2nc3c(=O)n(C(C)C(=O)NCc4ccc(OC(C)C)cc4)nc(C)c3c2C)cc1` (stereo unspecified): inactive: -19.2%; `COc1ccc2c(CNCc3cccs3)c(C(=O)O)n(Cc3ccc(F)cc3)c2c1`: inactive: -6.64%.
To `Cc1ccc2c(CNC3CCCCC3)c(C(=O)O)n(Cc3ccc(F)cc3)c2c1` belongs inactive: -16.8%; to `O=C(Cn1c(SCc2ccc(F)cc2)nc2cccnc21)Nc1ccccc1F`, inactive: 1.86%; to `Cc1ccc2nc(COc3cccc(NC(=O)Nc4ccc(C)c(Cl)c4)c3)cc(=O)n2c1`, inactive: -0.268%.
Consider `COCCNC(=O)c1ccc2c(c1)N(Cc1cc(C)ccc1C)C(=O)c1ccccc1S2=O` (stereo unspecified), for which the “activation” value was inactive: -10.4%.
On to `CCCS(=O)(=O)N1CC(=O)N(c2cccc(Cl)c2)C(C)(C(=O)NC2CCCCC2)C1` (stereo unspecified), for which the “activation” value was inactive: 2.54%.
Regarding `CC(=O)c1cccc(NC(=O)c2sc(-n3nc(C)c(Cc4ccccc4)c3C)nc2C)c1`, the “activation” value is inactive: -16.9%.
To `Cc1cc(=O)[nH]c2nnc(SCc3ccc(Cl)cc3Cl)n12` belongs inactive: 0.24%.
Next, `CCOc1ccccc1CNC(=O)c1cc2c(=O)n(Cc3cccnc3)ccc2nc1C`: inactive: -17.5%; `O=C(Nc1ccc(F)c(Cl)c1)c1ccc2c(Cl)c3c(nc2c1)CCCC3`: inactive: 6.32%; `COc1cccc2cc(-c3nc(-c4ccccc4F)no3)c(=O)oc12`: inactive: 7.41%.
Next, `CCc1ccccc1Nc1nn2c(=O)c3ccc(C(=O)NCCC4=CCCCC4)cc3nc2s1`: inactive: -25%.
As for `CCCC(=O)Nc1cccc(OCc2cc(=O)n3cccc(C)c3n2)c1`, the “activation” value is inactive: 1.79%.
To `Cc1cc(=O)n2nc(N(C)CC(=O)NCc3ccccc3C)sc2n1` belongs inactive: -15.5%; to `O=C(NCCc1ccccc1)c1cc(Nc2ccccc2)nc2ccccc12`, inactive: -14.8%.

Source of the values: PubChem BioAssay AID1159614 (National Center for Advancing Translational Sciences (NCATS), 2016).
